Reference: patent US11364242B2, “Treatment agents for inhibiting HIV and cancer in HIV infected patients” (UNIVERSITY OF MARYLAND, BALTIMORE, priority 2015, dated 2022)

Columns and labels:
R5 HIV JRFL Env = assay: Cell-cell fusion assay, Env-expressing 293T effectors and primary CD4+ T targets; settings: CD4 targets from two donors
R5 HIV (JRFL) = assay: Real-time PCR of early reverse transcription products and integrated HIV DNA in infected PBLs; type: cell-based; settings: 16 hours, PBLs from two donors
Procedure: Activated PBLs were infected with R5 and X4 HIV strains using a MOI of 0.01. Infected cells were cultured in the presence of IL-2 and different concentrations of INK128. Cell aliquots were collected at 16 and 72 hours for analyses of early products of reverse transcription and of integration, respectively, by real time PCR. Detection of early products of reverse transcription was done with primers specific for the R/U5 region (60). For detection of integrated HIV DNA, a real-time nested Alu-HIV PCR assay was used as previously described (61, 62), with the modifications described herein.
DNA was isolated using Miniblood kit (Qiagen™). PCR amplification was performed using Quantitect SYBR Green™ PCR Kit (Qiagen™) in a LightCycler™ (Biorad™). Detection of early products of reverse transcription was done in reactions containing 100 ng of DNA and the primer pair 5′-[…]-3′ (SEQ ID NO. 1) and 5′-[…]-3′ (SEQ ID NO. 2) (R/U5 region) (60). […] Amplified products were analyzed by denaturation/renaturation to verify the specific Tm. The PCR cycle at which the signal entered the exponential range was used for quantification, and HIV copy numbers were corrected for those of α-tubulin. […] As a standard curve for relative quantification of integrated DNA, the Alu-gag was first run using serial dilutions of DNA isolated from HIV infected PBLs (diluted in HIV-negative DNA). […]

## CC(C)n1nc(-c2ccc3oc(N)nc3c2)c2c(N)ncnc21 [INK128, 5-(4-amino-1-propan-2-ylpyrazolo[3,4-d]pyrimidin-3-yl)-1,3-benzoxazol-2-amine]
R5 HIV JRFL Env
  fusion of CD4+T target cells with Env-expressing cells: inhibited fusion
R5 HIV (JRFL)
  early products of reverse transcription (R/U5 transcripts): decreased levels
